# Test results: PubChem BioAssay (NCATS)
# Inconclusive means that the source gave no clear call. Such entries were picked first, then a sample of the others. Potencies beside an inconclusive call are fits to weak or partial responses and may not hold up. Active and inactive are the calls of the source. Unless noted, calls follow the shape of the dose curve; as a rule, active = well fitted curve in the direction sought with a large enough effect; inconclusive = small, poorly fitted or top-dose-only effect, or another doubt; inactive = no such curve, though single readings can be large; an effect the other way counts as inactive or inconclusive.
# How the values were obtained:
# [1] = biological target: Aldehyde dehydrogenase, mitochondrial (Homo sapiens) (UniProt P05091); assay: qHTS for Inhibitors of the Aldehyde Dehydrogenase Family (ALDH2) Confirmatory screens (AID 2061303; active = well fitted inhibition curve with a large enough effect; inconclusive = small, poorly fitted or top-dose-only effect; inactive = no such curve, though single readings can be large or run the other way; title and protocol of this record describe different tests; also: nearly all actives have a fitted effect of over 45% in size); conditions: ALDH inhibition qHTS; activity change, negative = inhibition: at 45.4 µM (top of the series)
# [2] = biological target: Aldehyde dehydrogenase, mitochondrial (Homo sapiens) (UniProt P05091); assay: qHTS for Inhibitors of the Aldehyde Dehydrogenase Family (ALDH2) Primary screen (AID 2061308); also: nearly all actives have a fitted effect of over 55% in size
# [3] = biological target: Retinaldehyde dehydrogenase 3 (Homo sapiens) (UniProt P47895); assay: qHTS for Inhibitors of the Aldehyde Dehydrogenase Family (ALDH1A3) Confirmatory screens (AID 2061311); conditions: activity change, negative = inhibition: at 46 µM (top of the series); also: nearly all actives have a fitted effect of over 60% in size
# [4] = qHTS for Inhibitors of the Aldehyde Dehydrogenase Family (ALDH1A2, ALDH1A3, ALDH2, ALDH3A1) (AID 2061307); conditions: ALDH inhibition qHTS; activity change, negative = inhibition: at 50.3 µM (top of the series) unless noted; also: nearly all actives have a fitted effect of over 50% in size; as to Potency: test system not described further here
# [5] = biological target: Retinaldehyde dehydrogenase 3 (Homo sapiens) (UniProt P47895); assay: qHTS for Inhibitors of the Aldehyde Dehydrogenase Family (ALDH1A3) Primary screen (AID 2061315); conditions: ALDH inhibition qHTS; activity change, negative = inhibition: at 56 µM (top of the series) unless noted
# [6] = biological target: Aldehyde dehydrogenase 1A1 (Homo sapiens) (UniProt P00352); assay: qHTS for Inhibitors of the Aldehyde Dehydrogenase Family (ALDH1A1) Confirmatory screens (AID 2061316); conditions: activity change, negative = inhibition: at 47.3 µM (top of the series); also: nearly all actives have a fitted effect of over 65% in size
# [7] = biological target: Retinal dehydrogenase 2 (Homo sapiens) (UniProt O94788); assay: qHTS for Inhibitors of the Aldehyde Dehydrogenase Family (ALDH1A2) Confirmation screens (AID 2061314); conditions: activity, negative = inhibition: at 45.9 µM (top of the series) unless noted; also: nearly all actives have a fitted effect of over 65% in size
# [8] = biological target: Retinaldehyde dehydrogenase 3 (Homo sapiens) (UniProt P47895); assay: qHTS for Inhibitors of the Aldehyde Dehydrogenase Family (ALDH1A3) Validation screen (AID 2061312); conditions: ALDH1A3 enzyme inhibition qHTS validation, fluorescence; activity change, negative = inhibition: at 84.7 µM (top of the series); also: nearly all actives have a fitted effect of over 45% in size
# Potency is read from the fitted curve at half-maximal effect; tags tell the direction and shape of the fitted curve.
smiles,measurement,setting,value
NC(=O)C1CCN(c2nccc(-c3ccc4c(c3)OCCO4)n2)CC1,Potency,[1],active: 5.65 µM
same,Potency,[2],"inconclusive: 3.98 µM [inhibitor, full curve, poor fit]"
same,Potency,[3],active: 14.1 µM
O=C(CSc1nc2ccccc2n1CCc1ccccc1)c1ccc(O)c(O)c1,Potency,[1],"inconclusive: 28.3 µM [inhibitor, partial curve, poor fit]"
same,Potency,[4],active: 12.7 µM
same,Potency,[5],inactive
COc1ccc(NC(c2nnc(-c3ccccc3)o2)c2ccccc2F)cc1Cl (configuration not stated),Potency,[1],inactive
same,Potency,[4],"inconclusive: 17.8 µM [inhibitor, partial curve, poor fit]"
same,Potency,[6],inactive
COc1ccc(CN2C(=O)c3ccccc3NC2c2ccc(OC)c(COc3ccc(NC(C)=O)cc3)c2)cc1 (configuration not stated),Potency,[1],active: 17.8 µM
same,Potency,[4],active: 7.94 µM
same,Potency,[6],"inconclusive: 22.5 µM [inhibitor, partial curve]"
Cc1cccc(C)c1-n1c(SCC(=O)NCCCCCC(=O)O)nnc1-c1cccc([S+](=O)([O-])N2CCCC2)c1,Potency,[1],inactive
same,Potency,[2],inactive
same,Potency,[3],inactive
same,Potency,[7],"inconclusive: 113 µM [inhibitor, partial curve, poor fit]"
CS(=O)(=O)c1ccc(C(=O)OCC(=O)N2Cc3ccccc3C2)cc1[N+](=O)[O-],Potency,[1],inactive
same,Potency,[4],"inconclusive: 22.5 µM [inhibitor, single point]"
same,Potency,[6],"inconclusive: 20.1 µM [inhibitor, partial curve]"
CC(C)(C)OC(=O)N1CCN(c2ccc(NCc3occc3-c3ccc(C#N)cc3)cc2)CC1,Potency,[1],"inconclusive: 12.7 µM [inhibitor, partial curve]"
same,Potency,[4],"inconclusive: 11.3 µM [inhibitor, partial curve]"
same,Potency,[5],"inconclusive: 14.1 µM [inhibitor, partial curve]"
same,Potency,[6],active: 11.3 µM
CC(=O)N1CCN(c2ccc(NCc3cccc(C)c3)cc2)CC1,Potency,[1],"inconclusive: 4.49 µM [inhibitor, partial curve, poor fit]"
same,Potency,[4],"inconclusive: 7.12 µM [inhibitor, partial curve]"
same,Potency,[5],"inconclusive: 3.55 µM [inhibitor, full curve]"
COc1ccc(CCO[C@@H]2CCCC[C@H]2N2CC[C@@H](O)C2)cc1OC,Potency,[1],inactive
same,Potency,[2],"inconclusive: 39.8 µM [inhibitor, single point]"
same,Potency,[3],inactive
same,Potency,[8],"inconclusive: 10 µM [inhibitor, full curve, poor fit]"
same,Potency,[6],inactive
CCOC(=O)N1CCC(CN(Cc2ccc(Cl)cc2)Cc2ccc([N+](=O)[O-])s2)C1 (configuration not stated),Potency,[1],"inconclusive: 28.3 µM [inhibitor, partial curve]"
same,Potency,[2],"inconclusive: 31.6 µM [inhibitor, single point]"
same,Potency,[3],"inconclusive: 22.5 µM [inhibitor, partial curve, poor fit]"
same,Potency,[8],active: 10 µM
same,Potency,[6],"inconclusive: 6.34 µM [inhibitor, full curve]"
CC(=O)Nc1ccc(S(=O)(=O)N2CCN(S(=O)(=O)c3ccc4c(c3)OCCO4)CC2)cc1,Potency,[1],inactive
same,Potency,[4],inactive
same,Potency,[6],inactive
COc1cccc(-c2nc(-c3ccc(C(=O)O)cc3)no2)c1,Potency,[1],"inconclusive: 25.1 µM [inhibitor, partial curve, poor fit]"
same,Potency,[4],active: 1.2 µM
same,Potency,[5],"inconclusive: 0.562 µM [inhibitor, full curve]"
same,Potency,[6],"inconclusive: 8.96 µM [inhibitor, partial curve, poor fit]"
COc1ccccc1-c1nc(-c2ccc(C(=O)O)cc2)no1,Potency,[1],"inconclusive: 0.0631 µM [inhibitor, full curve, poor fit]"
same,Potency,[4],active: 2.14 µM
same,Potency,[5],"inconclusive: 0.794 µM [inhibitor, full curve, poor fit]"
same,Potency,[6],inactive
O=C(Nc1cncc(O)c1)c1cccs1,Potency,[1],active: 12.7 µM
same,Potency,[4],"inconclusive: 3.57 µM [inhibitor, partial curve]"
same,Potency,[6],"inconclusive: 5.65 µM [inhibitor, full curve]"
CC(C)(C)OC(=O)N1CCN(c2ccc(NCc3cnc(-c4ccc(C#N)cc4)s3)cc2)CC1,Potency,[1],active: 1.79 µM
same,Potency,[2],"inconclusive: 0.794 µM [inhibitor, full curve, poor fit]"
same,Potency,[3],"inconclusive: 35.7 µM [inhibitor, single point]"
same,Potency,[7],inactive
COc1ccc2c(OC)c3ccoc3nc2c1OC,Potency,[1],"inconclusive: 35.5 µM [inhibitor, partial curve, poor fit]"
same,Potency,[4],active: 28.2 µM
same,Potency,[5],"inconclusive: 17.8 µM [inhibitor, single point]"
